Measured values taken from patent publication US8722849B2, “Polypeptides” (Novo Nordisk A/S, priority 2011, dated 2014).
At least one read-out could not be matched to a standard name with certainty. Starred links: 1 amine or outer side, 2 acyl side, 3 side chain; linkers in the order of their positions; H or OH if unused. Positions of bridges follow the written chain, without caps; N, C: chain ends. Residues, ends and D or L forms follow the SMILES beside them. *: point of attachment. C20 diacid = O=C(O)CCCCCCCCCCCCCCCCCCC(=O)*; γGlu = O=C(O)[C@H](CCC(=O)[*:2])N[*:1]

Test: Assay (III) ThT fibrillation assay for physical stability
Type: physicochemical
Conditions: ThT fibrillation assay
Procedure, shortened: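 Freshly prepared formulations, pH-adjusted, with 1 μM ThT; four or eight replicates incubated at 37 °C under 960 rpm orbital shaking. Fluorescence (ex 444/em 485 nm) read every 20 min; […]. Peptide concentration measured by RP-HPLC before and after the run.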

Structure (SMILES) | ThT pH 4.0 recovery (%) | ThT pH 4.0 recovery
CC[C@H](C)[C@H](NC(=O)[C@@H]1CCCN1C(=O)CNC(=O)[C@H](Cc1ccccc1)NC(=O)[C@H](CC(N)=O)NC(=O)[C@H](CO)NC(=O)[C@H](CO)NC(=O)[C@H](CO)NC(=O)[C@H](Cc1c[nH]cn1)NC(=O)[C@@H](NC(=O)[C@H](CC(C)C)NC(=O)[C@H](Cc1ccccc1)NC(=O)[C@H](CCC(=O)O)NC(=O)[C@H](C)NC(=O)[C@H](CC(C)C)NC(=O)[C@H](CCCNC(=N)N)NC(=O)[C@H](CCC(N)=O)NC(=O)[C@@H](NC(=O)[C@H](C)NC(=O)[C@@H]1CSSC[C@H](NC(=O)[C@H](Cc2c[nH]cn2)NC(=O)CC[C@H](NC(=O)CCCCCCCCCCCCCCCCCCC(=O)O)C(=O)O)C(=O)N[C@@H](CC(N)=O)C(=O)N[C@@H]([C@@H](C)O)C(=O)N[C@@H](C)C(=O)N[C@@H]([C@@H](C)O)C(=O)N1)[C@@H](C)O)C(C)C)C(=O)N[C@@H](CC(C)C)C(=O)N[C@@H](CO)C(=O)N[C@@H](CO)C(=O)N[C@H](C(=O)N[C@@H](CC(N)=O)C(=O)N[C@H](C(=O)NCC(=O)N[C@@H](CO)C(=O)N[C@@H](Cc1c[nH]cn1)C(=O)N[C@H](C(=O)N[C@@H](Cc1ccc(O)cc1)C(N)=O)[C@@H](C)O)C(C)C)[C@@H](C)O [Example 110, N-alpha-[(S)-4-Carboxy-4-(19-carboxynonadecanoylamino)butyryl]-[His1,Glu14,Ser21,Ser28,Ser29,His35]-pramlintide] ({C20 diacid-γGlu}-HCNTATCATQRLAEFLVHSSSNFGPILSSTNVGSHTY-NH2; disulfide 2-7 (inferred)) | 0% | –
CC[C@H](C)[C@H](NC(=O)[C@@H]1CCCN1C(=O)CNC(=O)[C@H](Cc1ccccc1)NC(=O)[C@H](CC(N)=O)NC(=O)[C@H](CCC(N)=O)NC(=O)[C@H](CO)NC(=O)[C@H](CO)NC(=O)[C@H](Cc1c[nH]cn1)NC(=O)[C@H](CCCNC(=N)N)NC(=O)[C@H](CC(C)C)NC(=O)[C@H](Cc1ccccc1)NC(=O)[C@H](CCC(=O)O)NC(=O)[C@H](C)NC(=O)[C@H](CC(C)C)NC(=O)[C@H](CCCNC(=N)N)NC(=O)[C@H](CCC(N)=O)NC(=O)[C@@H](NC(=O)[C@H](C)NC(=O)[C@@H]1CSSC[C@H](NC(=O)[C@H](CCC(=O)O)NC(=O)[C@H](CCCNC(=N)N)NC(=O)[C@H](CCC(=O)O)NC(=O)CC[C@H](NC(=O)CCCCCCCCCCCCCCCCCCC(=O)O)C(=O)O)C(=O)N[C@@H](CC(N)=O)C(=O)N[C@@H]([C@@H](C)O)C(=O)N[C@@H](C)C(=O)N[C@@H]([C@@H](C)O)C(=O)N1)[C@@H](C)O)C(=O)N[C@@H](CC(C)C)C(=O)N1CCC[C@H]1C(=O)N1CCC[C@H]1C(=O)N[C@H](C(=O)N[C@@H](CCC(N)=O)C(=O)N[C@H](C(=O)NCC(=O)N[C@@H](CO)C(=O)N[C@@H](CCC(N)=O)C(=O)N[C@H](C(=O)N1CCC[C@H]1C(N)=O)[C@@H](C)O)C(C)C)[C@@H](C)O [Example 163, N-alpha-[(S)-4-Carboxy-4-(19-carboxynonadecanoylamino)butyryl]-Glu-Arg-[Glu1,Glu14,Arg17,Gln21,Gln31,Gln35,Pro37]-pramlintide] ({C20 diacid-γGlu}-ERECNTATCATQRLAEFLRHSSQNFGPILPPTQVGSQTP-NH2; disulfide 4-9) | 95% | 95%
CC[C@H](C)[C@H](NC(=O)[C@@H]1CCCN1C(=O)CNC(=O)[C@H](Cc1ccccc1)NC(=O)[C@H](CC(N)=O)NC(=O)[C@H](CC(N)=O)NC(=O)[C@H](CO)NC(=O)[C@H](CO)NC(=O)[C@H](Cc1c[nH]cn1)NC(=O)[C@H](Cc1c[nH]cn1)NC(=O)[C@H](CC(C)C)NC(=O)[C@H](Cc1ccccc1)NC(=O)[C@H](CCC(=O)O)NC(=O)[C@H](C)NC(=O)[C@H](CC(C)C)NC(=O)[C@H](CCCCN)NC(=O)[C@H](CCC(N)=O)NC(=O)[C@@H](NC(=O)[C@H](C)NC(=O)[C@@H]1CSSC[C@H](NC(=O)[C@H](CCCCN)NC(=O)CC[C@H](NC(=O)CCCCCCCCCCCCCCCCCCC(=O)O)C(=O)O)C(=O)N[C@@H](CC(N)=O)C(=O)N[C@@H]([C@@H](C)O)C(=O)N[C@@H](C)C(=O)N[C@@H]([C@@H](C)O)C(=O)N1)[C@@H](C)O)C(=O)N[C@@H](CC(C)C)C(=O)N1CCC[C@H]1C(=O)N1CCC[C@H]1C(=O)N[C@H](C(=O)N[C@@H](CC(N)=O)C(=O)N[C@H](C(=O)NCC(=O)N[C@@H](CO)C(=O)N[C@@H](CC(N)=O)C(=O)N[C@H](C(=O)N1CCC[C@H]1C(N)=O)[C@@H](C)O)C(C)C)[C@@H](C)O [Example 145, N-alpha-[(S)-4-Carboxy-4-(19-carboxynonadecanoylamino)butyryl]-[Lys11,Glu14,His17,Pro37]-pramlintide] ({C20 diacid-γGlu}-KCNTATCATQKLAEFLHHSSNNFGPILPPTNVGSNTP-NH2; disulfide 2-7 (inferred)) | 91% | 91%
CC[C@H](C)[C@H](NC(=O)[C@@H]1CCCN1C(=O)CNC(=O)[C@H](Cc1ccccc1)NC(=O)[C@H](CC(N)=O)NC(=O)[C@H](CC(N)=O)NC(=O)[C@H](CO)NC(=O)[C@H](CO)NC(=O)[C@H](Cc1c[nH]cn1)NC(=O)[C@@H](NC(=O)[C@H](CC(C)C)NC(=O)[C@H](Cc1ccccc1)NC(=O)[C@H](CCC(=O)O)NC(=O)[C@H](C)NC(=O)[C@H](CC(C)C)NC(=O)[C@H](CCCNC(=N)N)NC(=O)[C@H](CCC(N)=O)NC(=O)[C@@H](NC(=O)[C@H](C)NC(=O)[C@@H]1CSSC[C@H](NC(=O)[C@H](CCCCN)NC(=O)CC[C@H](NC(=O)CCCCCCCCCCCCCCCCCCC(=O)O)C(=O)O)C(=O)N[C@@H](CC(N)=O)C(=O)N[C@@H]([C@@H](C)O)C(=O)N[C@@H](C)C(=O)N[C@@H]([C@@H](C)O)C(=O)N1)[C@@H](C)O)C(C)C)C(=O)N[C@@H](CC(C)C)C(=O)N1CCC[C@H]1C(=O)N1CCC[C@H]1C(=O)N[C@H](C(=O)N[C@@H](CC(N)=O)C(=O)N[C@H](C(=O)NCC(=O)N[C@@H](CO)C(=O)N[C@@H](CC(N)=O)C(=O)N[C@H](C(=O)N1CCC[C@H]1C(N)=O)[C@@H](C)O)C(C)C)[C@@H](C)O [Example 86, N-alpha-[(S)-4-Carboxy-4-(19-carboxynonadecanoylamino)butyryl]-[Glu14,Pro37]-pramlintide] ({C20 diacid-γGlu}-KCNTATCATQRLAEFLVHSSNNFGPILPPTNVGSNTP-NH2; disulfide 2-7 (inferred); C-terminus assumed) | 3.4% | –
CC[C@H](C)[C@H](NC(=O)[C@@H]1CCCN1C(=O)CNC(=O)[C@H](Cc1ccccc1)NC(=O)[C@H](CC(N)=O)NC(=O)[C@H](CC(N)=O)NC(=O)[C@H](CO)NC(=O)[C@H](CO)NC(=O)[C@H](Cc1c[nH]cn1)NC(=O)[C@H](CCCNC(=N)N)NC(=O)[C@H](CC(C)C)NC(=O)[C@H](Cc1ccccc1)NC(=O)[C@H](CCC(=O)O)NC(=O)[C@H](C)NC(=O)[C@H](CC(C)C)NC(=O)[C@H](CCCNC(=N)N)NC(=O)[C@H](CCC(N)=O)NC(=O)[C@@H](NC(=O)[C@H](C)NC(=O)[C@@H]1CSSC[C@H](NC(=O)[C@H](CCCCN)NC(=O)CC[C@H](NC(=O)CCCCCCCCCCCCCCCCCCC(=O)O)C(=O)O)C(=O)N[C@@H](CC(N)=O)C(=O)N[C@@H]([C@@H](C)O)C(=O)N[C@@H](C)C(=O)N[C@@H]([C@@H](C)O)C(=O)N1)[C@@H](C)O)C(=O)N[C@@H](CC(C)C)C(=O)N1CCC[C@H]1C(=O)N1CCC[C@H]1C(=O)N[C@H](C(=O)N[C@@H](CC(N)=O)C(=O)N[C@H](C(=O)NCC(=O)N[C@@H](CO)C(=O)N[C@@H](CC(N)=O)C(=O)N[C@H](C(=O)N[C@@H](Cc1ccc(O)cc1)C(N)=O)[C@@H](C)O)C(C)C)[C@@H](C)O [Example 50, N-alpha-[(S)-4-Carboxy-4-(19-carboxynonadecanoylamino)butyryl]-[Glu14,Arg17]-pramlintide] ({C20 diacid-γGlu}-KCNTATCATQRLAEFLRHSSNNFGPILPPTNVGSNTY-NH2; disulfide 2-7 (inferred)) | 85% | 85%
CC[C@H](C)[C@H](NC(=O)[C@@H]1CCCN1C(=O)CNC(=O)[C@H](Cc1ccccc1)NC(=O)[C@H](CC(N)=O)NC(=O)[C@H](CC(N)=O)NC(=O)[C@H](CO)NC(=O)[C@H](CO)NC(=O)[C@H](Cc1c[nH]cn1)NC(=O)[C@H](Cc1c[nH]cn1)NC(=O)[C@H](CC(C)C)NC(=O)[C@H](Cc1ccccc1)NC(=O)[C@H](CCC(=O)O)NC(=O)[C@H](C)NC(=O)[C@H](CC(C)C)NC(=O)[C@H](CCCNC(=N)N)NC(=O)[C@H](CCC(N)=O)NC(=O)[C@@H](NC(=O)[C@H](C)NC(=O)[C@@H]1CSSC[C@H](NC(=O)[C@H](CCCCN)NC(=O)CC[C@H](NC(=O)CCCCCCCCCCCCCCCCCCC(=O)O)C(=O)O)C(=O)N[C@@H](CC(N)=O)C(=O)N[C@@H]([C@@H](C)O)C(=O)N[C@@H](C)C(=O)N[C@@H]([C@@H](C)O)C(=O)N1)[C@@H](C)O)C(=O)N[C@@H](CC(C)C)C(=O)N1CCC[C@H]1C(=O)N1CCC[C@H]1C(=O)N[C@H](C(=O)N[C@@H](CC(N)=O)C(=O)N[C@H](C(=O)NCC(=O)N[C@@H](CO)C(=O)N[C@@H](CCCCN)C(=O)N[C@H](C(=O)N[C@@H](Cc1ccc(O)cc1)C(N)=O)[C@@H](C)O)C(C)C)[C@@H](C)O [Example 113, N-alpha-[(S)-4-Carboxy-4-(19-carboxynonadecanoylamino)butyryl]-[Glu14,His17,Lys35]-pramlintide] ({C20 diacid-γGlu}-KCNTATCATQRLAEFLHHSSNNFGPILPPTNVGSKTY-NH2; disulfide 2-7 (inferred)) | 88% | 88%
